# Results published in the supplement of paper PMC8728848.
# The list shows a part of the results.
# Assays:
# Experiment in all cases: glycan array binding signal (z-score within array); higher = stronger binding
# Details in all cases: glycan notation: IUPAC condensed, linker removed
# [1] = molecular target: Neu5Ac(a2-3)Gal(b1-3)[Neu5Ac(a2-6)]GalNAc
# Outline: (§1)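 From the Consortium for Functional Glycomics database, 3228 arrays were curated, keeping only those whose protein sequence was available. Binding is given as a within-array Z-score averaged across arrays sharing a protein sequence and across linkers. Negative Z-scores can be read as non-binding.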
# Neu5Ac(a2-3)Gal(b1-4)Glc = molecular target: Neu5Ac(a2-3)Gal(b1-4)Glc
# Outline: as §1
# [2] = molecular target: Neu5Ac(a2-3)Gal(b1-4)GlcNAc
# Outline: as §1
# [3] = molecular target: Neu5Ac(a2-3)Gal(b1-4)GlcNAc(b1-3)Gal(b1-4)GlcNAc
# Outline: as §1
# [4] = molecular target: Neu5Ac(a2-3)Gal(b1-4)GlcNAc(b1-3)Gal(b1-4)GlcNAc(b1-3)Gal(b1-4)GlcNAc
# Outline: as §1
# [5] = molecular target: Neu5Ac(a2-3)Gal(b1-4)GlcNAc(b1-3)Gal(b1-4)[Fuc(a1-3)]GlcNAc
# Outline: as §1
# [6] = molecular target: Neu5Ac(a2-3)Gal(b1-4)GlcNAc6S
# Outline: as §1
# [7] = molecular target: Neu5Ac(a2-3)Gal(b1-4)[Fuc(a1-3)]GlcNAc
# Outline: as §1
# [8] = molecular target: Neu5Ac(a2-3)Gal(b1-4)[Fuc(a1-3)]GlcNAc(b1-3)Gal
# Outline: as §1
# [9] = molecular target: Neu5Ac(a2-3)Gal(b1-4)[Fuc(a1-3)]GlcNAc(b1-3)Gal(b1-4)GlcNAc
# Outline: as §1
# [10] = molecular target: Neu5Ac(a2-3)Gal(b1-4)[Fuc(a1-3)]GlcNAc(b1-3)Gal(b1-4)[Fuc(a1-3)]GlcNAc(b1-3)Gal(b1-4)[Fuc(a1-3)]GlcNAc
# Outline: as §1
# [11] = molecular target: Neu5Ac(a2-3)Gal(b1-4)[Fuc(a1-3)]GlcNAc6S
# Outline: as §1
# [12] = molecular target: Neu5Ac(a2-3)Gal6S(b1-4)GlcNAc
# Outline: as §1
# [13] = molecular target: Neu5Ac(a2-3)Gal6S(b1-4)[Fuc(a1-3)]GlcNAc
# Outline: as §1
# Neu5Ac(a2-3)GalNAc = molecular target: Neu5Ac(a2-3)GalNAc
# Outline: as §1
# [14] = molecular target: Neu5Ac(a2-3)GalNAc(b1-4)GlcNAc
# Outline: as §1
# [15] = molecular target: Neu5Ac(a2-3)[GalNAc(b1-4)]Gal(b1-4)Glc
# Outline: as §1
# [16] = molecular target: Neu5Ac(a2-3)[GalNAc(b1-4)]Gal(b1-4)GlcNAc
# Outline: as §1
# [17] = molecular target: Neu5Ac(a2-3)[Neu5Ac(a2-6)]GalNAc
# Outline: as §1
# Neu5Ac(a2-6)Gal = molecular target: Neu5Ac(a2-6)Gal
# Outline: as §1
# Neu5Ac(a2-6)Gal(b1-4)Glc = molecular target: Neu5Ac(a2-6)Gal(b1-4)Glc
# Outline: as §1
# [18] = molecular target: Neu5Ac(a2-6)Gal(b1-4)GlcNAc
# Outline: as §1
# [19] = molecular target: Neu5Ac(a2-6)Gal(b1-4)GlcNAc(b1-2)Man(a1-3)[Neu5Ac(a2-6)Gal(b1-4)GlcNAc(b1-2)Man(a1-6)]Man(b1-4)GlcNAc(b1-4)GlcNAc
# Outline: as §1
# [20] = molecular target: Neu5Ac(a2-6)Gal(b1-4)GlcNAc(b1-3)Gal(b1-4)GlcNAc
# Outline: as §1
# [21] = molecular target: Neu5Ac(a2-6)Gal(b1-4)GlcNAc(b1-3)Gal(b1-4)[Fuc(a1-3)]GlcNAc(b1-3)Gal(b1-4)[Fuc(a1-3)]GlcNAc
# Outline: as §1
# [22] = molecular target: Neu5Ac(a2-6)Gal(b1-4)GlcNAc6S
# Outline: as §1
# Neu5Ac(a2-6)GalNAc = molecular target: Neu5Ac(a2-6)GalNAc
# Outline: as §1
# [23] = molecular target: Neu5Ac(a2-6)GalNAc(b1-4)GlcNAc
# Outline: as §1
# Neu5Ac(a2-8)Neu5Ac = molecular target: Neu5Ac(a2-8)Neu5Ac
# Outline: as §1
# [24] = molecular target: Neu5Ac(a2-8)Neu5Ac(a2-3)Gal(b1-4)Glc
# Outline: as §1
# [25] = molecular target: Neu5Ac(a2-8)Neu5Ac(a2-3)[GalNAc(b1-4)]Gal(b1-4)Glc
# Outline: as §1
# [26] = molecular target: Neu5Ac(a2-8)Neu5Ac(a2-8)Neu5Ac
# Outline: as §1
# [27] = molecular target: Neu5Ac(a2-8)Neu5Ac(a2-8)Neu5Ac(a2-3)Gal(b1-4)Glc
# Outline: as §1
# [28] = molecular target: Neu5Ac(a2-8)Neu5Ac(a2-8)Neu5Ac(a2-3)[GalNAc(b1-4)]Gal(b1-4)Glc
# Outline: as §1
# [29] = molecular target: Neu5Ac(a2-8)Neu5Ac(a2-8)Neu5Ac(a2-8)Neu5Ac(a2-3)[GalNAc(b1-4)]Gal(b1-4)Glc
# Outline: as §1
# Neu5Ac(b1-6)GalNAc = molecular target: Neu5Ac(b1-6)GalNAc
# Outline: as §1
# [30] = molecular target: Neu5Ac(b2-6)Gal(b1-4)GlcNAc
# Outline: as §1
# [31] = molecular target: Neu5Ac9Ac(a2-6)Gal(b1-4)GlcNAc
# Outline: as §1
# [32] = molecular target: Neu5Gc(a2-3)Gal(b1-3)GlcNAc
# Outline: as §1
# [33] = molecular target: Neu5Gc(a2-3)Gal(b1-3)[Fuc(a1-4)]GlcNAc
# Outline: as §1
# Neu5Gc(a2-3)Gal(b1-4)Glc = molecular target: Neu5Gc(a2-3)Gal(b1-4)Glc
# Outline: as §1
# [34] = molecular target: Neu5Gc(a2-3)Gal(b1-4)GlcNAc
# Outline: as §1
# [35] = molecular target: Neu5Gc(a2-3)Gal(b1-4)[Fuc(a1-3)]GlcNAc
# Outline: as §1
# [36] = molecular target: Neu5Gc(a2-6)Gal(b1-4)GlcNAc
# Outline: as §1
# Neu5Gc(a2-6)GalNAc = molecular target: Neu5Gc(a2-6)GalNAc
# Outline: as §1
binder,measurement,setting,value
"MMR (Homo sapiens), P22897 (protein) MRLPLLLVFASVIPGAVLLLDTRQFLIYNEDHKRCVDAVSPSAVQTAACNQDAESQKFRWVSESQIMSVAFKLCLGVPSKTDWVAITLYACDSKSEFQKWECKNDTLLGIKGEDLFFNYGNRQEKNIMLYKGSGLWSRWKIYGTTDNLCSRGYEAMYTLLGNANGATCAFPFKFENKWYADCTSAGRSDGWLWCGTTTDYDTDKLFGYCPLKFEGSESLWNKDPLTSVSYQINSKSALTWHQARKSCQQQNAELLSITEIHEQTYLTGLTSSLTSGLWIGLNSLSFNSGWQWSDRSPFRYLNWLPGSPSAEPGKSCVSLNPGKNAKWENLECVQKLGYICKKGNTTLNSFVIPSESDVPTHCPSQWWPYAGHCYKIHRDEKKIQRDALTTCRKEGGDLTSIHTIEELDFIISQLGYEPNDELWIGLNDIKIQMYFEWSDGTPVTFTKWLRGEPSHENNRQEDCVVMKGKDGYWADRGCEWPLGYICKMKSRSQGPEIVEVEKGCRKGWKKHHFYCYMIGHTLSTFAEANQTCNNENAYLTTIEDRYEQAFLTSFVGLRPEKYFWTGLSDIQTKGTFQWTIEEEVRFTHWNSDMPGRKPGCVAMRTGIAGGLWDVLKCDEKAKFVCKHWAEGVTHPPKPTTTPEPKCPEDWGASSRTSLCFKLYAKGKHEKKTWFESRDFCRALGGDLASINNKEEQQTIWRLITASGSYHKLFWLGLTYGSPSEGFTWSDGSPVSYENWAYGEPNNYQNVEYCGELKGDPTMSWNDINCEHLNNWICQIQKGQTPKPEPTPAPQDNPPVTEDGWVIYKDYQYYFSKEKETMDNARAFCKRNFGDLVSIQSESEKKFLWKYVNRNDAQSAYFIGLLISLDKKFAWMDGSKVDYVSWATGEPNFANEDENCVTMYSNSGFWNDINCGYPNAFICQRHNSSINATTVMPTMPSVPSGCKEGWNFYSNKCFKIFGFMEEERKNWQEARKACIGFGGNLVSIQNEKEQAFLTYHMKDSTFSAWTGLNDVNSEHTFLWTDGRGVHYTNWGKGYPGGRRSSLSYEDADCVVIIGGASNEAGKWMDDTCDSKRGYICQTRSDPSLTNPPATIQTDGFVKYGKSSYSLMRQKFQWHEAETYCKLHNSLIASILDPYSNAFAWLQMETSNERVWIALNSNLTDNQYTWTDKWRVRYTNWAADEPKLKSACVYLDLDGYWKTAHCNESFYFLCKRSDEIPATEPPQLPGRCPESDHTAWIPFHGHCYYIESSYTRNWGQASLECLRMGSSLVSIESAAESSFLSYRVEPLKSKTNFWIGLFRNVEGTWLWINNSPVSFVNWNTGDPSGERNDCVALHASSGFWSNIHCSSYKGYICKRPKIIDAKPTHELLTTKADTRKMDPSKPSSNVAGVVIIVILLILTGAGLAAYFFYKKRRVHLPQEGAFENTLYFNSQSSPGTSDMKDLVGNIEQNEHSVI",glycan array binding signal (z-score),[1],-0.337
same,glycan array binding signal (z-score),Neu5Ac(a2-3)Gal(b1-4)Glc,-0.428
same,glycan array binding signal (z-score),[2],-0.402
same,glycan array binding signal (z-score),[3],-0.439
same,glycan array binding signal (z-score),[4],-0.442
same,glycan array binding signal (z-score),[5],0.843
same,glycan array binding signal (z-score),[6],-0.22
same,glycan array binding signal (z-score),[7],-0.365
same,glycan array binding signal (z-score),[8],-0.424
same,glycan array binding signal (z-score),[9],0.374
same,glycan array binding signal (z-score),[10],0.363
same,glycan array binding signal (z-score),[11],0.087
same,glycan array binding signal (z-score),[12],-0.377
same,glycan array binding signal (z-score),[13],-0.363
same,glycan array binding signal (z-score),Neu5Ac(a2-3)GalNAc,-0.395
same,glycan array binding signal (z-score),[14],-0.381
same,glycan array binding signal (z-score),[15],-0.388
same,glycan array binding signal (z-score),[16],-0.307
same,glycan array binding signal (z-score),[17],-0.237
same,glycan array binding signal (z-score),Neu5Ac(a2-6)Gal,-0.378
same,glycan array binding signal (z-score),Neu5Ac(a2-6)Gal(b1-4)Glc,-0.384
same,glycan array binding signal (z-score),[18],-0.407
same,glycan array binding signal (z-score),[19],-0.418
same,glycan array binding signal (z-score),[20],-0.449
same,glycan array binding signal (z-score),[21],1.46
same,glycan array binding signal (z-score),[22],-0.155
same,glycan array binding signal (z-score),Neu5Ac(a2-6)GalNAc,-0.376
same,glycan array binding signal (z-score),[23],-0.398
same,glycan array binding signal (z-score),Neu5Ac(a2-8)Neu5Ac,0.065
same,glycan array binding signal (z-score),[24],0.684
same,glycan array binding signal (z-score),[25],0.441
same,glycan array binding signal (z-score),[26],0.829
same,glycan array binding signal (z-score),[27],0.78
same,glycan array binding signal (z-score),[28],0.262
same,glycan array binding signal (z-score),[29],0.701
same,glycan array binding signal (z-score),Neu5Ac(b1-6)GalNAc,-0.43
same,glycan array binding signal (z-score),[30],-0.394
same,glycan array binding signal (z-score),[31],-0.397
same,glycan array binding signal (z-score),[32],0.095
same,glycan array binding signal (z-score),[33],-0.05
same,glycan array binding signal (z-score),Neu5Gc(a2-3)Gal(b1-4)Glc,-0.087
same,glycan array binding signal (z-score),[34],0.122
same,glycan array binding signal (z-score),[35],-0.097
same,glycan array binding signal (z-score),[36],-0.08
same,glycan array binding signal (z-score),Neu5Gc(a2-6)GalNAc,-0.244
